Source: article PMC12109561, “LPS2336, a New TREK-1 Channel Activator Identified by High Throughput Screening” (Biomolecules, 2025)

Assays:
hTREK-1 = molecular target: T1, hTREK-1 (Homo sapiens, UniProt O95069); settings: 10 µM
T1 sequence (O95069 1-422 isoform O95069-3): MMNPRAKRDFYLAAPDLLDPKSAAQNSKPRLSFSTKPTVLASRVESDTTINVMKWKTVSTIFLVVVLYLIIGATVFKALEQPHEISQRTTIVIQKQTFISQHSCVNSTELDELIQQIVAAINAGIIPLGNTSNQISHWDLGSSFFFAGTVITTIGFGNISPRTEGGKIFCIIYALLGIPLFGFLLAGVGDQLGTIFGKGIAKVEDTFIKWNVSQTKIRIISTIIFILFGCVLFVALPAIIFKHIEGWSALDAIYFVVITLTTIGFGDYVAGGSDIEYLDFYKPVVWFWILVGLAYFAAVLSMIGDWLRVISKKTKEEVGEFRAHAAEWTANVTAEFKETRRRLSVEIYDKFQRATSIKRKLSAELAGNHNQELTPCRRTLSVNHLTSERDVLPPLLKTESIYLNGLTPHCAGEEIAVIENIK

CD1 mice = assay: Horizontal bar test in CD1 mice; format: in vivo, mouse; settings: i.p. 50 mg/kg, 15 min before the test
Text: A 13 cm long, 2 mm diameter metal bar was placed horizontally between 2 rods at a 30 cm height. To evaluate the general wakefulness of animals, and reveal a potential sedative effect of tested compounds, mice were lifted by the tail and placed close to the bar so that they naturally grab it with both forepaws. After gently releasing the tail, the time taken by mice to climb on the bar (grabbing it with their four paws) was monitored.
To search for possible adverse effects induced by LPS2336 in vivo, we submitted CD1 mice to different confounding tests aiming at characterizing motor coordination, balance, muscle strength and spontaneous locomotor activity. […] To assess the contribution of TREK-1 to this adverse effect, we submitted TREK-1 knock-out mice (which are of the C57Bl6/J background) to the same test, 15 min following the injection of 50 mg/kg LPS2336. […] We finally submitted the mice to a third test consisting in observing their spontaneous locomotion in an open arena (open field test). […] Finally, we monitored the body temperature of mice for 45 min after intraperitoneal injection of LPS2336 at 40 mg/kg and could observe hypothermia in both WT and TREK-1 KO (−2.4 and −2.6 °C, respectively) following LPS2336 treatment (Figure 7F,G).

Compound	fluorescence (ΔFmax/F0) in HEK-hTREK-1 cells (hTREK-1)	time to climb on horizontal bar (CD1 mice)
c1ccc(-c2nn[nH]n2)c(Nc2cccc3c2CCCC3)c1 [BL-1249, reference compound]	strong increase in fluorescence	
N#CCN1CCC(Cc2ccccc2)CC1 [LPS2336]		took longer to climb
